Data as given in publication PMC12434519 (ACS Medicinal Chemistry Letters, 2025).
Like-named read-outs stand apart in the source and are kept apart here.

Key:
[1] = biological target: T1, SARS-CoV-2 NSP14 (Severe acute respiratory syndrome coronavirus 2, UniProt P0DTD1)
[2] = biological target: T1, SARS-CoV-2 NSP14; assay: biochemical

C[C@@H](NC(=O)c1ccc(CNC(=O)c2ccc3[nH]ncc3c2)cc1)c1cccc(O)c1 [RU-0834179, C[C@@H](NC(=O)C1=CC=C(CNC(=O)C2=CC=C3NN=CC3=C2)C=C1)C1=CC(O)=CC=C1]
TM Replicate 1 (ºC) (NSP14+SAH+cmpd) ([1]; NSP14+SAH 47, SBVS hits): 48 ºC
TM (ºC) (NSP14+compound) ([1]; NSP14 alone 43, SBVS hits): 43 ºC
IC50 ([2]; LUM % inhibition, read-out: SARS-CoV-2 NSP14 inhibition: IC50): 5.82 µM
Emax ([2]; LUM % inhibition, read-out: SARS-CoV-2 NSP14 inhibition: Maximum response): 90.9%
SARS-CoV-2 NSP14 inhibition: Hill slope ([2]; SBVS hits): 1.08
SARS-CoV-2 NSP14 inhibition: Hill slope ([2]; fit of concentration-response curve): 1.08
IC50 ([2]; n = 3, read-out: IC50 for the inhibition of SARS-CoV-2 NSP14 (95% CI)): 5.8 µM

COc1ccccc1-c1cc(C(=O)NC(C)c2cnn(-c3ccccn3)c2C)[nH]n1 (stereo not shown) [RU-0032489, C1(C(NC(C2=CC(C3=CC=CC=C3OC)=NN2)=O)C)=C(C)N(C2=NC=CC=C2)N=C1]
∆TM (°C) ([1]; HTS hits, Sheet1, NSP14+SAH+compound vs NSP14+SAH): 0.5 °C
∆TM (°C) ([1]; HTS hits, Sheet2, compound + SAH vs SAH): 0.5 °C
Average Tm NSP14 (ºC) + compound + SAH ([1]; HTS hits, NSP14 + SAH 48.0): 48.5 ºC
Emax ([2]; 0.75 h, read-out: NSP14 SARS COV2 : Maximum measured (%)): 80.4%
NSP14 SARS COV2 : Hill slope ([2]; HTS hits, Sheet2): 0.959
IC50 ([2]; HTS hits, Suppl. Table 3 Sheet1, read-out: IC50): 7.23 µM
